“Also recorded” adds a separate entry of the source. For some of these results: Part of at least one peptide drawing is inferred or uncertain, most often the ends. At least one structure is not confirmed: it was looked up by name or label, or the drawing left a doubt. Some entries repeat one wording, which the source may state once for all of them. Some results were stated once for a whole list of compounds, not compound by compound. Some compounds share one range, which may span the group rather than tell each member.
Assays:
[1] = Body weight loss efficacy by 10-day repeated injection, Compounds 3, 10, 14, obese mice (Exp. Ex. 6); format: in vivo, C57BL/6 mouse; details: 100 nmol/kg s.c. once every 3 days x 4, 10 days
Human GLP-1 receptors = Human GLP-1 receptors (Homo sapiens, UniProt P43220); experiment: GLP-1 receptor activation assay (CRE-luciferase reporter, CHO-K1); details: for activity on GLP-1 receptors (in words): comparison in text of Table 5 results; for EC50: read-out: EC50(pM) On GLP-1 receptors, CHO-K1 transiently expressing human GLP-1 receptor, luciferase, 6 hours, 0.1% BSA
Human GLP-1 receptors, sequence (P43220 24-463): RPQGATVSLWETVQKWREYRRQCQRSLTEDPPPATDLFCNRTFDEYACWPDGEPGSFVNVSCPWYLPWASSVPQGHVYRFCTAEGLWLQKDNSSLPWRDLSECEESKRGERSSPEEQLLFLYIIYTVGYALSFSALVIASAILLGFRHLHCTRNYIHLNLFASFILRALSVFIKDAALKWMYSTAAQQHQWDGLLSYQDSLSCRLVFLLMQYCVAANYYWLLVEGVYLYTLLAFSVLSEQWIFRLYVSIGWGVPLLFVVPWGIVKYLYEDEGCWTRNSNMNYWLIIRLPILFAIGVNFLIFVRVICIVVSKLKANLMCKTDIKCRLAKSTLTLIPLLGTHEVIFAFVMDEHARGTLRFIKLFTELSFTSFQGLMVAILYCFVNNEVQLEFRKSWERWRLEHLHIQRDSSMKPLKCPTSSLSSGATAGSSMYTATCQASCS

Human glucagon receptors = Human glucagon receptors (Homo sapiens, UniProt P47871); experiment: Glucagon receptor activation assay (CRE-luciferase reporter, CHO-K1); details: for activity on glucagon receptors (in words): comparison in text of Table 5 results; for EC50: read-out: EC50(pM) On glucagon receptors, CHO-K1 transiently expressing human glucagon receptor, luciferase, 6 hours, 0.1% BSA
Human glucagon receptors, sequence (P47871 26-477): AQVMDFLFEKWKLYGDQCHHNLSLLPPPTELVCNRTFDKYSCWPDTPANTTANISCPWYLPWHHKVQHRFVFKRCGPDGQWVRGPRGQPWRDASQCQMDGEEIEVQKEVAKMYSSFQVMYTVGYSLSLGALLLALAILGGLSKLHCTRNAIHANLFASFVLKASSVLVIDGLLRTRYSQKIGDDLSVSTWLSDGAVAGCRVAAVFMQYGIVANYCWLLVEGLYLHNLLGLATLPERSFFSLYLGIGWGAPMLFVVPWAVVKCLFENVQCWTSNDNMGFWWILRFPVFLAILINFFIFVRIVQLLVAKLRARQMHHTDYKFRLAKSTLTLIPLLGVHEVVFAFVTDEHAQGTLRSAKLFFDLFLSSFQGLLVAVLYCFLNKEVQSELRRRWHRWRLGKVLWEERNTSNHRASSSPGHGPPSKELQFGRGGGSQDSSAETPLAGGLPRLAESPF

[2] = Body weight loss efficacy by 1-week repeated injection, Compounds 3, 13, 18, obese mice (Exp. Ex. 7); format: in vivo, C57BL/6 mouse; details: 100 nmol/kg s.c. once every 3 days x 3, 7 days
[3] = Body weight loss efficacy by 2-week repeated injection, Compounds 3, 21-25, obese mice (Exp. Ex. 8); format: in vivo, C57BL/6 mouse; details: 100 nmol/kg s.c. once every 3 days x 5, 2 weeks
[4] = Body weight loss efficacy by 1-week repeated injection, obese mice (Exp. Ex. 3); format: in vivo, C57BL/6 mouse; details: 100 nmol/kg s.c. once a day x 6
[5] = Oral glucose tolerance test in mice (Exp. Ex. 12); format: in vivo, C57BL/6 mouse; details: s.c. 30 minutes before oral glucose loading

SMILES: CCCCCCCCCCCCCCCCCC(=O)N[C@@H](CCC(=O)NCCOCCOCC(=O)NCCOCCOCC(=O)NCCOCCOCC(=O)NCCCC[C@H](NC(=O)[C@H](CC(=O)O)NC(=O)[C@H](CO)NC(=O)[C@@H](NC(=O)[C@H](Cc1ccccc1)NC(=O)[C@@H](NC(=O)CNC(=O)[C@H](CCC(N)=O)NC(=O)C(C)(C)NC(=O)[C@@H](N)Cc1c[nH]cn1)[C@@H](C)O)[C@@H](C)O)C(=O)N[C@@H](CO)C(=O)N[C@@H](CCCCN)C(=O)N[C@@H](Cc1ccc(O)cc1)C(=O)N[C@@H](CC(C)C)C(=O)N[C@@H](CC(=O)O)C(=O)NC(C)(C)C(=O)N[C@@H](CCCNC(=N)N)C(=O)N[C@@H](CCCNC(=N)N)C(=O)N[C@@H](C)C(=O)N[C@@H](CCC(N)=O)C(=O)N[C@@H](CC(=O)O)C(=O)N[C@@H](Cc1ccccc1)C(=O)N[C@H](C(=O)N[C@@H](CCC(N)=O)C(=O)N[C@@H](Cc1c[nH]c2ccccc12)C(=O)N[C@@H](CC(C)C)C(=O)N[C@@H](CCSC)C(=O)N[C@@H](CC(N)=O)C(=O)N[C@H](C(=O)N[C@@H](CCCCN)C(=O)O)[C@@H](C)O)C(C)C)C(=O)O [Compound 10]
- body weight loss efficacy from initial body weight [1]: 19-22%
- cumulative food intake reduced against vehicle control group [1]: 20%
- activity on GLP-1 receptors (in words) (Human GLP-1 receptors): outstanding activity on GLP-1 and glucagon receptors
- activity on glucagon receptors (in words) (Human glucagon receptors): outstanding activity on GLP-1 and glucagon receptors

SMILES: CSCC[C@H](NC(=O)[C@H](CC(C)C)NC(=O)[C@H](Cc1c[nH]c2ccccc12)NC(=O)[C@H](CCC(N)=O)NC(=O)[C@@H](NC(=O)[C@H](Cc1ccccc1)NC(=O)[C@H](CC(=O)O)NC(=O)[C@H](CCC(N)=O)NC(=O)[C@H](C)NC(=O)[C@H](CCCNC(=N)N)NC(=O)[C@H](CCCNC(=N)N)NC(=O)C(C)(C)NC(=O)[C@H](CC(=O)O)NC(=O)[C@H](CC(C)C)NC(=O)[C@H](Cc1ccc(O)cc1)NC(=O)[C@H](CCCCN)NC(=O)[C@H](CO)NC(=O)[C@H](CCCCNC(=O)COCCOCCNC(=O)COCCOCCNC(=O)CC[C@H](NC(=O)CCCCCCCCCCCCCCCCC(N)=O)C(=O)O)NC(=O)[C@H](CC(=O)O)NC(=O)[C@H](CO)NC(=O)[C@@H](NC(=O)[C@H](Cc1ccccc1)NC(=O)[C@@H](NC(=O)CNC(=O)[C@H](CCC(N)=O)NC(=O)C(C)(C)NC(=O)[C@@H](N)Cc1c[nH]cn1)[C@@H](C)O)[C@@H](C)O)C(C)C)C(=O)N[C@@H](CC(N)=O)C(=O)N[C@H](C(=O)N[C@@H](CCCCN)C(=O)O)[C@@H](C)O [Compound 13]
- body weight loss efficacy (in words) [2]: did not have any significant effect on body weight
- in vitro efficacy, times less than Compound 3 (Human GLP-1 receptors; receptor not specified (GLP-1 and glucagon receptor assays)): about 10 times

SMILES: CCCCCCCCCCCCCCCCCC(=O)N[C@@H](CCC(=O)NCCOCCOCC(=O)NCCOCCOCC(=O)NCCOCCOCC(=O)NCCOCCOCC(=O)NCCCC[C@H](NC(=O)[C@H](CC(=O)O)NC(=O)[C@H](CO)NC(=O)[C@@H](NC(=O)[C@H](Cc1ccccc1)NC(=O)[C@@H](NC(=O)CNC(=O)[C@H](CCC(N)=O)NC(=O)C(C)(C)NC(=O)[C@@H](N)Cc1c[nH]cn1)[C@@H](C)O)[C@@H](C)O)C(=O)N[C@@H](CO)C(=O)N[C@@H](CCCCN)C(=O)N[C@@H](Cc1ccc(O)cc1)C(=O)N[C@@H](CC(C)C)C(=O)N[C@@H](CC(=O)O)C(=O)NC(C)(C)C(=O)N[C@@H](CCCNC(=N)N)C(=O)N[C@@H](CCCNC(=N)N)C(=O)N[C@@H](C)C(=O)N[C@@H](CCC(N)=O)C(=O)N[C@@H](CC(=O)O)C(=O)N[C@@H](Cc1ccccc1)C(=O)N[C@H](C(=O)N[C@@H](CCC(N)=O)C(=O)N[C@@H](Cc1c[nH]c2ccccc12)C(=O)N[C@@H](CC(C)C)C(=O)N[C@@H](CCSC)C(=O)N[C@@H](CC(N)=O)C(=O)N[C@H](C(=O)N[C@@H](CCCCN)C(=O)O)[C@@H](C)O)C(C)C)C(=O)O [Compound 18]
- body weight loss efficacy (in words) [2]: similarly outstanding body weight loss efficacy to Compound 3
- activity on GLP-1 receptors (in words) (Human GLP-1 receptors): outstanding activity on GLP-1 and glucagon receptors
- EC50 (Human GLP-1 receptors): < 10 pM
- activity on glucagon receptors (in words) (Human glucagon receptors): outstanding activity on GLP-1 and glucagon receptors
- EC50 (Human glucagon receptors): < 10 pM

SMILES: CCCCCCCCCCCCCCCCCC(=O)N[C@@H](CCC(=O)NCCOCCOCC(=O)NCCOCCOCC(=O)NCCOCCOCC(=O)NCCOCCOCC(=O)NCCCC[C@H](NC(=O)[C@H](CC(=O)O)NC(=O)[C@H](CO)NC(=O)[C@@H](NC(=O)[C@H](Cc1ccccc1)NC(=O)[C@@H](NC(=O)CNC(=O)[C@H](CCC(N)=O)NC(=O)C(C)(C)NC(=O)[C@@H](N)Cc1c[nH]cn1)[C@@H](C)O)[C@@H](C)O)C(=O)N[C@@H](CO)C(=O)N[C@@H](CCCCN)C(=O)N[C@@H](Cc1ccc(O)cc1)C(=O)N[C@@H](CC(C)C)C(=O)N[C@@H](CC(=O)O)C(=O)N[C@H]1CCC(=O)NCCCC[C@@H](C(=O)N[C@@H](CC(=O)O)C(=O)N[C@@H](Cc2ccccc2)C(=O)N[C@H](C(=O)N[C@@H](CCC(N)=O)C(=O)N[C@@H](Cc2c[nH]c3ccccc23)C(=O)N[C@@H](CC(C)C)C(=O)N[C@@H](CCSC)C(=O)N[C@@H](CC(N)=O)C(=O)N[C@H](C(=O)N[C@@H](CCCCN)C(N)=O)[C@@H](C)O)C(C)C)NC(=O)[C@H](C)NC(=O)[C@H](CCCNC(=N)N)NC(=O)[C@H](CCCNC(=N)N)NC1=O)C(=O)O [Compound 24, H-HAibQGTFTSDZSKYLDERRAKDFVQWLMNTK-NH2]
- body weight loss efficacy (in words) [3]: inferior body weight loss efficacy compared to Compound 3
- body weight loss efficacy against initial body weight [3]: about 13.4%
- activity on glucagon receptors (in words) (Human glucagon receptors): somewhat weak action on glucagon receptor compared to other compounds

SMILES: CCCCCCCCCCCCCCCC(=O)N[C@@H](CCC(=O)NCCCC[C@H](NC(=O)[C@H](C)NC(=O)[C@H](C)NC(=O)[C@H](CCC(N)=O)NC(=O)CNC(=O)[C@H](CCC(=O)O)NC(=O)[C@H](CC(C)C)NC(=O)[C@H](Cc1ccc(O)cc1)NC(=O)[C@H](CO)NC(=O)[C@H](CO)NC(=O)[C@@H](NC(=O)[C@H](CC(=O)O)NC(=O)[C@H](CO)NC(=O)[C@@H](NC(=O)[C@H](Cc1ccccc1)NC(=O)[C@@H](NC(=O)CNC(=O)[C@H](CCC(=O)O)NC(=O)[C@H](C)NC(=O)[C@@H](N)Cc1cnc[nH]1)[C@@H](C)O)[C@@H](C)O)C(C)C)C(=O)N[C@@H](CCC(=O)O)C(=O)N[C@@H](Cc1ccccc1)C(=O)N[C@H](C(=O)N[C@@H](C)C(=O)N[C@@H](Cc1c[nH]c2ccccc12)C(=O)N[C@@H](CC(C)C)C(=O)N[C@H](C(=O)N[C@@H](CCCNC(=N)N)C(=O)NCC(=O)N[C@@H](CCCNC(=N)N)C(=O)NCC(=O)O)C(C)C)[C@@H](C)CC)C(=O)O [Liraglutide, reference compound]
- body weight loss [4]: approximately 12.2%

SMILES: CCCCCCCCCCCCCCCCCC(=O)N[C@@H](CCC(=O)NCCOCCOCC(=O)NCCOCCOCC(=O)NCCOCCOCC(=O)NCCOCCOCC(=O)NCCCC[C@H](NC(=O)[C@H](CC(=O)O)NC(=O)[C@H](CO)NC(=O)[C@@H](NC(=O)[C@H](Cc1ccccc1)NC(=O)[C@@H](NC(=O)CNC(=O)[C@H](CCC(N)=O)NC(=O)C(C)(C)NC(=O)[C@@H](N)Cc1c[nH]cn1)[C@@H](C)O)[C@@H](C)O)C(=O)N[C@@H](CO)C(=O)N[C@@H](CCCCN)C(=O)N[C@@H](Cc1ccc(O)cc1)C(=O)N[C@@H](CC(C)C)C(=O)N[C@@H](CC(=O)O)C(=O)N[C@H]1CCC(=O)NCCCC[C@@H](C(=O)N[C@@H](CC(=O)O)C(=O)N[C@@H](Cc2ccccc2)C(=O)N[C@H](C(=O)N[C@@H](CCC(N)=O)C(=O)N[C@@H](Cc2c[nH]c3ccccc23)C(=O)N[C@@H](CC(C)C)C(=O)N[C@@H](CCSC)C(=O)N[C@@H](CC(N)=O)C(=O)N[C@H](C(=O)N[C@@H](CCCCN)C(=O)O)[C@@H](C)O)C(C)C)NC(=O)[C@H](C)NC(=O)[C@H](CCCNC(=N)N)NC(=O)[C@H](CCCNC(=N)N)NC1=O)C(=O)O [Compound 25, H-HAibQGTFTSDZSKYLDERRAKDFVQWLMNTK-OH]
- body weight loss efficacy (in words) [3]: better body weight loss efficacy than Compound 3
- cumulative food intake (in words) [3]: higher cumulative food intake compared to Compound 3; also recorded: lower cumulative food intake
- glucose tolerance improvement efficacy compared to Compounds 3 and 22 (in words) [5]: three times superior glucose tolerance improvement efficacy compared to Compounds 3 and 22
- glucose tolerance improvement efficacy (in words) ([5]; all dose groups evaluated): significant glucose tolerance improvement efficacy

SMILES: CCCCCCCCCCCCCCCCCC(=O)N[C@@H](CCC(=O)NCCOCCOCC(=O)NCCOCCOCC(=O)NCCCC[C@H](NC(=O)[C@H](CC(=O)O)NC(=O)[C@H](CO)NC(=O)[C@@H](NC(=O)[C@H](Cc1ccccc1)NC(=O)[C@@H](NC(=O)CNC(=O)[C@H](CCC(N)=O)NC(=O)C(C)(C)NC(=O)[C@@H](N)Cc1c[nH]cn1)[C@@H](C)O)[C@@H](C)O)C(=O)N[C@@H](CO)C(=O)N[C@@H](CCCCN)C(=O)N[C@@H](Cc1ccc(O)cc1)C(=O)N[C@@H](CC(C)C)C(=O)N[C@@H](CC(=O)O)C(=O)N[C@H]1CCC(=O)N2CCN(CC2)C(=O)CC[C@@H](C(=O)N[C@@H](CC(=O)O)C(=O)N[C@@H](Cc2ccccc2)C(=O)N[C@H](C(=O)N[C@@H](CCC(N)=O)C(=O)N[C@@H](Cc2c[nH]c3ccccc23)C(=O)N[C@@H](CC(C)C)C(=O)N[C@@H](CCSC)C(=O)N[C@@H](CC(N)=O)C(=O)N[C@H](C(=O)N[C@@H](CCCCN)C(=O)O)[C@@H](C)O)C(C)C)NC(=O)[C@H](C)NC(=O)[C@H](CCCNC(=N)N)NC(=O)[C@H](CCCNC(=N)N)NC1=O)C(=O)O [Compound 23, H-HAibQGTFTSDZSKYLDERRAEPFVQWLMNTK-OH]
- cumulative food intake (in words) [3]: higher cumulative food intake compared to Compound 3
- EC50 (Human GLP-1 receptors): < 10 pM
- EC50 (Human glucagon receptors): < 10 pM
